From patent US10100129B2, “Antibodies against CD73 and uses thereof” (BRISTOL-MYERS SQUIBB COMPANY, priority 2014, dated 2018)

Assays:
[1] = molecular target: T1, N-hCD73-his (hCD73(26-336)His) (Homo sapiens, UniProt P21589); experiment: SPR (Biacore T100) kinetics of CD73 mAbs binding to N-hCD73-his; details: antibody captured on protein A, N-hCD73-his analyte, 25 C
T1 construct: consisting of residues 26-336 of human CD73; termed N-hCD73; His (C); made in house; host or cells: HEK-293 E cells (transient transfection)
T1 sequence (P21589 26-336): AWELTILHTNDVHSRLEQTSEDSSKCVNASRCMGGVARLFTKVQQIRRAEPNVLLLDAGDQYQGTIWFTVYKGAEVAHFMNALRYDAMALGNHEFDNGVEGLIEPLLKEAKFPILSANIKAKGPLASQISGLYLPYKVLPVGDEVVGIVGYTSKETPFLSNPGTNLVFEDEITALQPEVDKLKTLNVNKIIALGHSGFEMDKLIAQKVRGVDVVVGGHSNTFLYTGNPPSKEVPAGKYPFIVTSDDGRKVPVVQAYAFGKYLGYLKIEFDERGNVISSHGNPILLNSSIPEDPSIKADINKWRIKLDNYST
Description: One experimental format tested the binding of the N-terminal domain of hCD73 (consisting of residues 26-336 of human CD73; termed N-hCD73) to antibodies that were captured on immobilized protein A surfaces. For these experiments, protein A (Pierce) was immobilized to a density of 3000-4000 RU on flow cells 1-4 of a CM5 sensor chip (GE Healthcare) using standard ethyl(dimethylaminopropyl) carbodiimide (EDC)/N-hydroxysuccinimide (NHS) chemistry, with ethanolamine blocking, in a running buffer of 0.01 M HEPES pH 7.4, 0.15 M NaCl, 3 mM EDTA, 0.005% v/v tween 20. Kinetic experiments were performed by first capturing antibodies (5-10 ug/ml) on the protein A surfaces using a 30 s contact time at 10 ul/min, with binding of 600, 200, 66.7, 22.2, 7.4, and 2.5 nM N-hCD73-his, using a 180 s association time and 360 s dissociation time at a flow rate of 30 ul/min. The running buffer for the kinetic experiments was 10 mM sodium phosphate, 130 mM sodium chloride, 0.05% tween 20, pH 7.1. The surfaces were regenerated after each cycle using two 30 s pulses of 10 mM glycine pH 1.5 at a flow rate of 30 μl/min. Sensogram data was double-referenced and then fitted to a 1:1 Langmuir model using Biacore T100 evaluation software v2.0.4, to determine the association rate constant (ka), the dissociation rate constant (kd), and the equilibrium dissociation constant (KD). […]

[2] = SEC-MALS oligomeric state of CD73 mAbs; assay type: physicochemical
Description: The oligomeric state of CD73 mAbs were examined by size-exclusion chromatography coupled to an in-line multi-angle light scattering detector (SEC-MALS). Isocratic separations were performed on a Shodex PROTEIN KW-803 column connected to an Prominence Shimadzu UFLC in buffer containing 200 mM K2HPO4, 150 mM NaCl, pH 6.8, containing 0.02% Na azide (0.1 μm filtered) running at 0.5 mL/min. Samples were injected onto the column using a SIL-20AC Prominence Shimadzu autosampler, and data were obtained from three online detectors connected in series: a Prominence SPD-20AD diode array UV/vis spectrophotometer followed by a Wyatt miniDAWN™ TREOS Multi-Angle Light Scattering Detector then a Wyatt Optilab T-rEX Refractive Index Detector. Data (as shown in Table 15 below) were collected and analyzed using Astra (Wyatt) and Labsolutions (Shimadzu) software.

CD73 on human cell lines = molecular target: T2, CD73 on human cell lines (Homo sapiens, UniProt P21589); experiment: Kinetic internalization studies (high-content imaging); assay type: cell-based
T2 construct: Calu6 (CD73 endogenous expressors; human pulmonary adenocarcinoma cell line); endogenous in cells; host or cells: Calu6, NCI-H292, SK-MEL-24, SNU-C1, NCI-H1437, H2228, HCC15, H2030 and further human tumour lines
T2 sequence (P21589 27-549): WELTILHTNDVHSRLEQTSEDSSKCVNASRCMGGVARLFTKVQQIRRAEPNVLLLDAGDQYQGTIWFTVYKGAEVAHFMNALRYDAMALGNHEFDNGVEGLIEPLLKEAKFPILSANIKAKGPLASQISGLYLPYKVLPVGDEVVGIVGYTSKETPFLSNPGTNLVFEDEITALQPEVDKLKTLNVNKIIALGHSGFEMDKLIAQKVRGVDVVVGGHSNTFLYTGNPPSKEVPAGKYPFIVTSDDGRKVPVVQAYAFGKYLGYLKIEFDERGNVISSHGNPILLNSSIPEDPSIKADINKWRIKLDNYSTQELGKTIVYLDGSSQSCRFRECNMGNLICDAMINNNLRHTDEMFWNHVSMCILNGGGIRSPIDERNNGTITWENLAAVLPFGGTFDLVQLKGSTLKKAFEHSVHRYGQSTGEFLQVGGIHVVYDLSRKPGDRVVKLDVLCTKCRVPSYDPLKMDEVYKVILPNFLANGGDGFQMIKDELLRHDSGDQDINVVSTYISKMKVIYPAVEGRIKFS
Description: Kinetic internalization studies were performed to assess the rate of internalization. Cells (2,000 cells/well) in 20 μl of complete medium (Gibco RPMI Media 1640 with 10% heat inactivated fetal bovine serum) were plated in 384 BD Falcon plate and grown overnight at 37° C. 5% CO2 and 95% humidity. CD73 antibodies were diluted with PBS buffer containing 0.2% BSA to 10 μg/ml and added 5 μl/well into the cell plate. The cells were incubated with antibodies for a 0-2 hour time course at 37° C., followed by washing once with PBS buffer. The cells were subsequently fixed with formaldehyde (final 4% in PBS) at room temperature for 10 minutes, and then washed once with 30 ul PBS. […] The plate was incubated at 4° C. for overnight. On the next day, after 3 washes in PBS buffer, Secondary antibody Alexa488-goat anti human with DAPI were added. The cells were stained for 60 minutes at room temperature, after 3 washes, images were acquired using Arrayscan Vti (Cellomics, Pittsburgh, Pa.).

B1: 5F8: human anti-CD73 monoclonal antibody, IgG1za; VH SEQ ID NO: 68; predominant light chain VK1 (antibody)
heavy: EVQLVESGGGLVQPGGSLRLSCAASGFTFSSYWMHWVRQAPGKGLVWVSRIISDGSSTGYADSVKGRFTISRDNAKNTLYLQMNSLRAEDTAVYYCAREFSSGWYFDYWGQGTLVTVSS[sequence of human IgG1 constant region omitted]
light: AIQLTQSPSSLSASVGDRVTITCRASQGISSALAWYQQKPGKAPKLLIYDASSLESGVPSRFSGSGSGTDFTLTISSLQPEDFATYYCQQFSSYPRTFGQGTKVEIKRTVAAPSVFIFPPSDEQLKSGTASVVCLLNNFYPREAKVQWKVDNALQSGNSQESVTEQDSKDSTYSLSSTLTLSKADYEKHKVYACEVTHQGLSSPVTKSFNRGEC
modifications: Synthetic: 5F8 (full length heavy chain); Synthetic: 5F8 (full length light chain 1)
notes: human anti-CD73 monoclonal antibody, IgG1za; predominant light chain VK1
**Q.** For B1, which “kd” value [1] is on record?
**A.** 0.006 s⁻¹

**Q.** And the “SEC % HMW” value [2]?
**A.** 2.3%

**Q.** What about the “SEC % LMW” value [2] of the same molecule?
**A.** 0.0%

**Q.** And the “SEC % Monomer” value [2]?
**A.** 97.7%

**Q.** What about the “internalization (in words)” value (CD73 on human cell lines) of the same molecule?
**A.** did not internalize significantly
